The values that follow come from US8722910B2, “Diyne compositions” (Evolva AG, priority 2009, dated 2014).

This assay deals with Candida albicans. Kind of assay: In vitro fungicidal activity vs. Candida albicans. As to conditions: growth-negative samples after 24 hr incubation, subcultured.

For the molecule `O=C(O)CCCCCCC/C=C\C#CC#Cc1ccco1` [Compound III″], the “reduction of the original inoculum” value was “greater than 99.9%”.
